Reference: patent publication US20230399377A1 (ELUMINEX BIOSCIENCES SUZHOU, published 2023)

Key:
[1] = target: T1, recombinant human VEGF-A165 (human, UniProt P15692-4 27-191); test: cell-based or functional assay
T1 sequence (looked up): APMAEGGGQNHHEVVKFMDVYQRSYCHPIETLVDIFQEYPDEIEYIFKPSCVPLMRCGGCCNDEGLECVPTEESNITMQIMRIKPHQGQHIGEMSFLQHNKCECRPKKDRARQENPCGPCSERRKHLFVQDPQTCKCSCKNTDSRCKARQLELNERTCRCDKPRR

recombinant human VEGF-C [2] = target: T2, recombinant human VEGF-C (human, UniProt P49767 103-227, limits assumed); test: cell-based or functional assay
T2 sequence (looked up): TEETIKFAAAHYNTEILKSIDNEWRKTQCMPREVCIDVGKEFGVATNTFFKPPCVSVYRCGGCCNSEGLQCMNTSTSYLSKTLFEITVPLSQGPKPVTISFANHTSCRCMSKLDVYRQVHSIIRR

recombinant human VEGF-C [3] = target: T2, recombinant human VEGF-C; test: cell-based or functional assay; remark: listed apart in the source
[4] = target: T1, recombinant human VEGF-A165; test: cell-based or functional assay; remark: listed apart in the source
recombinant human VEGF-C [5] = target: T2, recombinant human VEGF-C; test: cell-based or functional assay; remark: listed apart in the source
[6] = target: T1, recombinant human VEGF-A165; test: cell-based or functional assay; remark: listed apart in the source
human PlGF [7] = target: T3, human PlGF (human, UniProt P49763-2 19-149, limits assumed); test: SPR Biacore; Fc fusion captured on anti-human IgG (Fc) antibody chip, PlGF as analyte, 1:1 model
T3 construct: also called P1GF; PGF
T3 sequence (looked up): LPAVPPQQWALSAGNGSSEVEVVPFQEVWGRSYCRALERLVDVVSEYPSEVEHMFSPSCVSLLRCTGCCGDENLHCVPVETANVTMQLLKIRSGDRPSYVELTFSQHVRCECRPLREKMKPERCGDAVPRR
Description: (§1) The 1:1 binding model was used to measure the binding affinity and/or kinetics.

recombinant human VEGF-C [8] = target: T2, recombinant human VEGF-C; test: SPR Biacore; Fc fusion captured on anti-human IgG (Fc) antibody chip, VEGF-C as analyte, 1:1 model
Description: as §1

human PlGF [9] = target: T3, human PlGF; test: SPR Biacore; Fc fusion captured on anti-human IgG (Fc) antibody chip, PlGF as analyte, 1:1 model; remark: listed apart in the source
Description: as §1

recombinant human VEGF-C [10] = target: T2, recombinant human VEGF-C; test: SPR Biacore; Fc fusion captured on anti-human IgG (Fc) antibody chip, VEGF-C as analyte, 1:1 model; remark: listed apart in the source
Description: as §1

[11] = target: T1, recombinant human VEGF-A165; test: SPR Biacore; Fc fusion captured on anti-human IgG (Fc) antibody chip, VEGF-A165 as analyte, 1:1 model
Description: as §1

human VEGF-B 167/189 = target: T4, human VEGF-B 167/189 (human, UniProt P49765-2 22-188, limits assumed); test: SPR Biacore; Fc fusion captured on anti-human IgG (Fc) antibody chip, VEGF-B167/189 as analyte, 1:1 model
T4 sequence (looked up): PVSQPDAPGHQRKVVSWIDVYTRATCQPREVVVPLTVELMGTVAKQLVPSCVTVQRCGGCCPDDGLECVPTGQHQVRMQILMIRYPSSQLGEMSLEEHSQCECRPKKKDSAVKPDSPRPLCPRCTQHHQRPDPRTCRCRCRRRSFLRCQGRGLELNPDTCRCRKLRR
Description: as §1

recombinant human VEGF-C [12] = target: T2, recombinant human VEGF-C; test: cell-based or functional assay; remark: listed apart in the source
recombinant human VEGF-D [13] = target: T5, recombinant human VEGF-D (human, UniProt O43915 93-201, limits assumed); test: cell-based or functional assay
T5 sequence (looked up): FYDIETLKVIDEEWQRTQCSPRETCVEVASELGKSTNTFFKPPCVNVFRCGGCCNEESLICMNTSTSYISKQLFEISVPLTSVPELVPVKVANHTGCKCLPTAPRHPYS

[14] = target: T1, recombinant human VEGF-A165; test: cell-based or functional assay; remark: listed apart in the source
recombinant human VEGF-C [15] = target: T2, recombinant human VEGF-C; test: cell-based or functional assay; remark: listed apart in the source
recombinant human VEGF-D [16] = target: T5, recombinant human VEGF-D; test: cell-based or functional assay; remark: listed apart in the source

B1: EB-101 (Fc fusion)
chain: SDTGRPFVEMYSEIPEIIHMTEGRELVIPCRVTSPNITVTLKKFPLDTLIPDGKRIIWDSRKGFIISNATYKEIGLLTCEATVNGHLYKTNYLTHRQTNTIIDVVLSPSHGIELSVGEKLVLNCTARTELNVGIDFNWEYPSSKHQHKKLVNRDLKTQSGSEMKKFLSTLTIDGVTRSDQGLYTCAASSGLMTKKNSTFVRVHEKYSMTPPTLNITEESHVIDTGDSLSISCRGQHPLEWAWPGAQEAPATGDKDSEDTGVVRDCEGTDARPYCKVLLLHEVHANDTGSYVCYYKYIKARIEGTTAASSYVFVRDFEQPFINKPDTLLVNRKDAMWVPCLVSIPGLNVTLRSQSSVLWPDGQEVVWDDRRGMLVSTPLLHDALYLQCETTWGDQDFLSNPFLVHITGNELGGSGGGSGGGGSGGGGGSGGGG[human IgG1 Fc not given here]
notes: About 200 kDa non-reduced on SDS-PAGE; also called VEGFR-1-D2-VEGFR-2-D3-VEGFR-3-D1D2-Fc
In the case of B1, the “IC50, inhibition of VEGF-A165 (60 ng/mL) mediated VEGFR-2 signaling, VEGFR-2-NFAT-RE luciferase reporter cells” value [1] is reported as 0.21 nM, the “IC50, inhibition of VEGF-C (25 ng/mL) mediated VEGFR-2 signaling, VEGFR-2-NFAT-RE luciferase reporter cells” value (recombinant human VEGF-C [2]) is reported as 15.8 nM and the “IC50, inhibition of VEGF-C (25 ng/mL) mediated VEGFR-2 signaling, VEGFR-2-NFAT-RE luciferase reporter cells” value (recombinant human VEGF-C [3]) is reported as 24.5 nM. The “IC50, inhibition of VEGF-A165 (100 ng/mL on the sheet) mediated HLEC proliferation, alamarBlue reduction” value [4] was 0.82 nM, the “IC50, inhibition of VEGF-C (40 ng/mL on the sheet) mediated HLEC proliferation, alamarBlue reduction” value (recombinant human VEGF-C [5]) was 20.8 nM and the “IC50, inhibition of VEGF-A165 (60 ng/mL) mediated VEGFR-2 signaling, VEGFR-2-NFAT-RE luciferase reporter cells” value [6] was 0.231 nM. It also gave a Kd (human PlGF [7]) of 0.209 nM, a koff (human PlGF [7]) of 0.00315 s⁻¹ and a kon (human PlGF [7]) of 1.68e+07 M⁻¹ s⁻¹. The Kd (recombinant human VEGF-C [8]) was 0.464 nM, the koff (recombinant human VEGF-C [8]) was 0.00144 s⁻¹ and the kon (recombinant human VEGF-C [8]) was 3.11e+06 M⁻¹ s⁻¹. The Kd (human PlGF [9]) was 0.21 nM, the Kd (recombinant human VEGF-C [10]) was 0.46 nM and the Kd [11] was 0.00751 nM. For the same binder, the Kd (human VEGF-B 167/189) was 0.14 nM.

B2: EB-101BIb (Fc fusion)
chain: SDTGRPFVEMYSEIPEIIHMTEGRELVIPCRVTSPNITVTLKKFPLDTLIPDGKRIIWDSRKGFIISNATYKEIGLLTCEATVNGHLYKTNYLTHRQTNTIIDVVLSPSHGIELSVGEKLVLNCTARTELNVGIDFNWEYPSSKHQHKKLVNRDLKTQSGSEMKKFLSTLTIDGVTRSDQGLYTCAASSGLMTKKNSTFVRVHEKGGSGGGSGGGGSGGGGGSGGGGYSMTPPTLNITEESHVIDTGDSLSISCRGQHPLEWAWPGAQEAPATGDKDSEDTGVVRDCEGTDARPYCKVLLLHEVHANDTGSYVCYYKYIKARIEGTTAASSYVFVRDFEQPFINKPDTLLVNRKDAMWVPCLVSIPGLNVTLRSQSSVLWPDGQEVVWDDRRGMLVSTPLLHDALYLQCETTWGDQDFLSNPFLVHITGNELYDIQLLPRKSLELLVGEKLVLNCTVWAEFNSGVTFDWDYPGKQAERGKWVPERRSQQTHTELSSILTIHNVSQHDLGSYVCKANNGIQRFRESTEVIVHEN[human IgG1 Fc not given here]
For B2, the “IC50, inhibition of VEGF-A165 (60 ng/mL) mediated VEGFR-2 signaling, VEGFR-2-NFAT-RE luciferase reporter cells” value [6] was 0.811 nM, the “IC50, MIXED STIMULUS VEGF-C (25 ng/mL) + VEGF-D (250 ng/mL on the sheet): inhibition of VEGFR-2 signaling, VEGFR-2-NFAT-RE luciferase reporter cells; one IC50 for the mixture” value (recombinant human VEGF-C [12]) was 3.17 nM and the “IC50, MIXED STIMULUS VEGF-C (25 ng/mL) + VEGF-D (250 ng/mL on the sheet): inhibition of VEGFR-2 signaling, VEGFR-2-NFAT-RE luciferase reporter cells; one IC50 for the mixture” value (recombinant human VEGF-D [13]) was 3.17 nM. The “IC50, inhibition of VEGF-A165 (60 ng/mL) mediated HLEC proliferation, alamarBlue reduction” value [14] was 0.505 nM, the “IC50, MIXED STIMULUS VEGF-C (25 ng/mL) + VEGF-D (150 ng/mL): inhibition of HLEC proliferation, alamarBlue reduction; one IC50 for the mixture” value (recombinant human VEGF-C [15]) was 1.09 nM and the “IC50, MIXED STIMULUS VEGF-C (25 ng/mL) + VEGF-D (150 ng/mL): inhibition of HLEC proliferation, alamarBlue reduction; one IC50 for the mixture” value (recombinant human VEGF-D [16]) was 1.09 nM.

Like-named read-outs stand apart in the source and are kept apart here.
